Laboratory results from the supplement of paper PMC4967469.
pIC50: −log10 of the molar value. A lower IC50 marks a more sensitive line; where the fit passes the top or lowest dose, that dose stands as a limit. AUC is the area under the same curve over the 256-fold range up to the top dose, as a fraction; it is 1 without any effect and falls as sensitivity rises.

Each cell line was assayed with NC1(c2ccc(-c3nc4ccn5c(=O)[nH]nc5c4cc3-c3ccccc3)cc2)CCC1 [MK-2206] (assay: Viability of human cancer cell lines after 72 h of drug (GDSC screen)).
Experimental: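 Human cancer cell lines in 384-well plates, medium with 10% serum, drug for 72 h over a 256-fold dose range (nine 2-fold or five 4-fold steps up to the top dose). Adherent lines were fixed and stained with the nucleic acid dye Syto60, suspension lines read with resazurin; signal relative to control wells, capped at 0 and 100%. One two-parameter sigmoid per drug and line, fitted in a mixed model over all curves with the slope shared within a line.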

Row | Cell Line | AUC | pIC50
1 | 8-MG-BA (glioma, adherent, top dose 4 µM) | 0.945 | < 5.40
2 | 22RV1 (prostate, adherent, top dose 4 µM) | 0.88 | < 5.40
3 | 42-MG-BA (glioma, adherent, top dose 4 µM) | 0.834 | 5.55
4 | 201T (lung adenocarcinoma, adherent, top dose 4 µM) | 0.837 | 5.43
5 | 451Lu (melanoma, adherent, top dose 4 µM) | 0.988 | < 5.40
6 | 639-V (bladder, adherent, top dose 4 µM) | 0.871 | 5.55
7 | 647-V (bladder, adherent, top dose 4 µM) | 0.945 | < 5.40
8 | 786-0 (kidney, adherent, top dose 4 µM) | 0.886 | 5.42
9 | 5637 (bladder, adherent, top dose 4 µM) | 0.934 | < 5.40
10 | 8305C (thyroid, adherent, top dose 4 µM) | 0.884 | < 5.40
11 | 8505C (thyroid, adherent, top dose 4 µM) | 0.876 | < 5.40
12 | 23132-87 (stomach, adherent, top dose 4 µM) | 0.626 | 6.25
13 | A3-KAW (B-cell lymphoma, suspension, top dose 4 µM) | 0.992 | < 5.40
14 | A4-Fuk (B-cell lymphoma, suspension, top dose 4 µM) | 0.538 | 6.50
15 | A101D (melanoma, adherent, top dose 4 µM) | 0.911 | < 5.40
16 | A253 (head and neck, adherent, top dose 4 µM) | 0.949 | < 5.40
17 | A375 (melanoma, adherent, top dose 4 µM) | 0.889 | 5.50
18 | A388 (skin, adherent, top dose 4 µM) | 0.828 | 5.53
19 | A427 (non-small cell lung carcinoma, adherent, top dose 4 µM) | 0.955 | < 5.40
20 | A431 (skin, adherent, top dose 4 µM) | 0.891 | < 5.40
21 | A498 (kidney, adherent, top dose 4 µM) | 0.877 | < 5.40
22 | A549 (lung adenocarcinoma, adherent, top dose 4 µM) | 0.756 | 5.82

Row | Cell Line | AUC | pIC50
23 | A673 (rhabdomyosarcoma, adherent, top dose 4 µM) | 0.984 | < 5.40
24 | A704 (kidney, adherent, top dose 4 µM) | 0.844 | 5.57
25 | A2780 (ovary, semi-adherent, top dose 4 µM) | 0.974 | < 5.40
26 | AGS (stomach, adherent, top dose 4 µM) | 0.662 | 6.18
27 | ALL-PO (lymphoblastic leukaemia, suspension, top dose 4 µM) | 0.595 | 6.33
28 | ALL-SIL (T-cell leukaemia, suspension, top dose 4 µM) | 0.802 | 5.78
29 | AM-38 (glioma, semi-adherent, top dose 4 µM) | 0.924 | < 5.40
30 | AMO-1 (haematopoietic neoplasm, suspension, top dose 4 µM) | 0.906 | < 5.40
31 | ARH-77 (myeloma, suspension, top dose 4 µM) | 0.988 | < 5.40
32 | ASH-3 (thyroid, adherent, top dose 4 µM) | 0.929 | < 5.40
33 | ATN-1 (T-cell lymphoblastic leukaemia, suspension, top dose 4 µM) | 0.758 | 5.89
34 | AU565 (breast, adherent, top dose 4 µM) | 0.563 | 6.42
35 | AsPC-1 (pancreas, adherent, top dose 2 µM) | 0.532 | 6.79
36 | BALL-1 (B-cell leukaemia, suspension, top dose 4 µM) | 0.971 | < 5.40
37 | BB30-HNC (head and neck, adherent, top dose 4 µM) | 0.789 | 5.76
38 | BB49-HNC (head and neck, adherent, top dose 4 µM) | 0.887 | < 5.40
39 | BC-1 (B-cell lymphoma, suspension, top dose 4 µM) | 0.982 | < 5.40
40 | BCPAP (thyroid, adherent, top dose 2 µM) | 0.943 | < 5.70
41 | BE2-M17 (neuroblastoma, adherent, top dose 4 µM) | 0.89 | < 5.40
42 | BE-13 (lymphoblastic leukaemia, suspension, top dose 4 µM) | 0.985 | < 5.40
43 | BFTC-905 (bladder, adherent, top dose 4 µM) | 0.936 | < 5.40
44 | BHT-101 (thyroid, adherent, top dose 4 µM) | 0.609 | 6.30

Row | Cell Line | AUC | pIC50
45 | BHY (head and neck, adherent, top dose 2 µM) | 0.981 | < 5.70
46 | BICR10 (head and neck, adherent, top dose 4 µM) | 0.542 | 6.48
47 | BICR22 (head and neck, adherent, top dose 4 µM) | 0.799 | 5.64
48 | BICR78 (head and neck, adherent, top dose 4 µM) | 0.776 | 5.73
49 | BL-41 (Burkitt lymphoma, suspension, top dose 4 µM) | 0.893 | 5.56
50 | BPH-1 (prostate, adherent, top dose 2 µM) | 0.903 | < 5.70
51 | BT-20 (breast, adherent, top dose 4 µM) | 0.856 | < 5.40
52 | BT-474 (breast, adherent, top dose 4 µM) | 0.834 | 5.52
53 | BT-483 (breast, adherent, top dose 4 µM) | 0.936 | < 5.40
54 | BT-549 (breast, adherent, top dose 4 µM) | 0.922 | < 5.40
55 | BV-173 (chronic myeloid leukaemia, suspension, top dose 4 µM) | 0.782 | 5.83
56 | Becker (glioma, adherent, top dose 4 µM) | 0.862 | < 5.40
57 | BxPC-3 (pancreas, adherent, top dose 4 µM) | 0.931 | < 5.40
58 | C2BBe1 (large intestine, adherent, top dose 2 µM) | 0.983 | < 5.70
59 | C3A (liver, adherent, top dose 4 µM) | 0.987 | < 5.40
60 | C32 (melanoma, adherent, top dose 4 µM) | 0.835 | 5.54
61 | C-4-I (cervix, adherent, top dose 4 µM) | 0.832 | 5.55
62 | C-33-A (cervix, adherent, top dose 4 µM) | 0.97 | < 5.40
63 | CA46 (Burkitt lymphoma, suspension, top dose 4 µM) | 0.94 | < 5.40
64 | CADO-ES1 (Ewing sarcoma, suspension, top dose 4 µM) | 0.988 | < 5.40
65 | CAL-12T (non-small cell lung carcinoma, adherent, top dose 4 µM) | 0.928 | < 5.40
66 | CAL-27 (head and neck, adherent, top dose 4 µM) | 0.96 | < 5.40

Row | Cell Line | AUC | pIC50
67 | CAL-29 (bladder, adherent, top dose 4 µM) | 0.736 | 5.90
68 | CAL-33 (head and neck, adherent, top dose 4 µM) | 0.692 | 6.06
69 | CAL-39 (cervix, adherent, top dose 4 µM) | 0.876 | < 5.40
70 | CAL-51 (breast, adherent, top dose 4 µM) | 0.939 | < 5.40
71 | CAL-54 (kidney, adherent, top dose 2 µM) | 0.769 | 6.06
72 | CAL-62 (thyroid, adherent, top dose 4 µM) | 0.966 | < 5.40
73 | CAL-72 (osteosarcoma, adherent, top dose 4 µM) | 0.952 | < 5.40
74 | CAL-78 (chondrosarcoma, adherent, top dose 4 µM) | 0.862 | < 5.40
75 | CAL-85-1 (breast, adherent, top dose 4 µM) | 0.925 | < 5.40
76 | CAL-120 (breast, adherent, top dose 4 µM) | 0.904 | < 5.40
77 | CAPAN-1 (pancreas, adherent, top dose 4 µM) | 0.869 | < 5.40
78 | CAS-1 (glioma, adherent, top dose 4 µM) | 0.919 | < 5.40
79 | CCF-STTG1 (glioma, adherent, top dose 4 µM) | 0.851 | 5.51
80 | CCK-81 (large intestine, adherent, top dose 4 µM) | 0.835 | 5.62
81 | CCRF-CEM (lymphoblastic leukaemia, suspension, top dose 4 µM) | 0.383 | 6.90
82 | CESS (acute myeloid leukaemia, suspension, top dose 4 µM) | 0.978 | < 5.40
83 | CGTH-W-1 (thyroid, adherent, top dose 4 µM) | 0.858 | 5.49
84 | CHL-1 (melanoma, adherent, top dose 4 µM) | 0.909 | < 5.40
85 | CHP-126 (neuroblastoma, suspension, top dose 4 µM) | 0.938 | < 5.40
